# Measurements published in PubChem BioAssay AID493208 (National Center for Advancing Translational Sciences (NCATS), 2011).
# The whole screen tested about 44,000 compounds, of which about 340 (0.77%) were called active. Roughly 5% stayed inconclusive and do not appear here. The call rests on the fitted dose curve; in most records, active means well fitted inhibition curve with a large enough effect; inconclusive means small, poorly fitted or top-dose-only effect; inactive means flat fitted curve, though single readings scatter. The list shows a part of the results.
# Assay: Acumen qHTS Assay for Inhibitors of the mTORC1 Signaling Pathway in MEF (Tsc2-/-, p53-/-) Cells: Sytravon;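 further: plate controls were DMSO for no effect and rapamycin for full effect; nearly all actives have a fitted effect of over 50% in size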
# Settings: phospho-rpS6 immunofluorescence/PI, 24 h; series mostly up to 38.3 µM; activity change, negative = inhibition: at the top concentration
# Summary of the method: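 Immunofluorescence of rpS6 phosphorylation in Tsc2-/-, p53-/- MEFs after 24 h compound exposure, normalized to propidium iodide signal. Activity is expressed as % positive cells, thresholded with 7.5 nM rapamycin.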
row,SMILES,"activity change, negative = inhibition"
1,Cc1cccc(C2C=C(c3ccc(F)cc3)Nc3nc4ccccc4n32)c1 (configuration not stated),inactive: -1.28%
2,CCOc1ccc(Cn2c(CNS(=O)(=O)c3ccc([N+](=O)[O-])cc3)nc3cccnc32)cc1,inactive: 4.45%
3,COc1ccc(C(=O)NCCSc2c(C)[nH]c3ccccc23)cc1,inactive: -11.9%
4,COCCn1ccc2c(OCC(=O)NCc3ccc(F)cc3)cccc2c1=O,inactive: -3.62%
5,Cc1ccc(NC(=O)Nc2nnc(SCC(=O)N3CCC(C)CC3)s2)cc1,inactive: 2.88%
6,COc1ccc(C(=O)N2CCC(c3c[nH]c4ccccc34)(c3c[nH]c4ccccc34)CC2)cc1,inactive: 3.42%
7,COc1ccccc1CNC(=O)c1oc2c(c1C)-c1nn(Cc3ccc(Cl)cc3)cc1CC2,inactive: 12.1%
8,COc1ccc(NC(=O)c2cc(C3CC3)nc3c2c(C)nn3-c2ccc(C)cc2)cc1OC,inactive: -0.843%
9,CN(C)c1ccc(CNC(=O)C2CCN(S(=O)(=O)c3cn(C)cn3)CC2)cc1,inactive: 0%
10,Cc1ccc(C)c(CN2C(=O)c3ccccc3S(=O)c3ccc(C(=O)NCCc4ccc(Cl)cc4)cc32)c1 (configuration not stated),inactive: -3.55%
11,COc1ccc(NC(=O)c2sc3nc(-c4cc5cccc(OC)c5oc4=O)[nH]c(=O)c3c2C)cc1,inactive: 5.08%
12,CCOc1ccc(N(CC)S(=O)(=O)N2CCCC(C(=O)NCc3ccc(SC)cc3)C2)cc1 (configuration not stated),inactive: -18.2%
13,COc1cccc(CNC(=O)NCc2noc3ccc(C)cc23)c1,inactive: 2.05%
14,Cc1ccc(NC(=O)CN2C=NS(=O)(=O)c3ccccc32)c(C)c1,inactive: -6.16%
15,COc1ccc(NC(=O)CN2C(=O)COc3ccc(S(=O)(=O)N4CCOCC4)cc32)cc1Cl,inactive: 0.254%
16,COc1ccc(NC(=O)Nc2nnc(N3CCCCCC3)s2)c(OC)c1,inactive: 0.387%
17,COc1ccc(N2CCN(C(=O)CCS(=O)(=O)c3cc(Br)cc4c3N(C(=O)C3CC3)CC4)CC2)cc1,inactive: -14.5%
18,COc1ccc(NC(=O)Cn2c(=O)c3cc(Cl)ccc3n3nncc23)cc1,inactive: -9.14%
19,CCOc1ccc(C(=O)c2cn(CC(=O)Nc3ccc4c(c3)OCCO4)c3ccc(F)cc3c2=O)cc1,inactive: 0.573%
20,CC(C)CCNS(=O)(=O)c1ccc(N2CCCCS2(=O)=O)cc1,inactive: 0%
21,COC(=O)CN1C(=O)CSc2ccc(S(=O)(=O)Nc3ccc(C(C)=O)cc3)cc21,inactive: 2.25%
22,CN(C(=O)CSc1nc(C2CCCC2)nc2c1c(=O)n(C)c(=O)n2C)c1ccccc1,inactive: 0%
23,Cc1cccc(C)c1OC(=O)CSc1nnc(CNC(=O)c2ccccc2)o1,inactive: -7.13%

row,SMILES,"activity change, negative = inhibition"
1,CC1CCN(C(=O)CSc2nnc(-c3ccccc3)o2)CC1,inactive: 2.24%
2,O=C(CSc1oc(-c2ccccc2)nc1S(=O)(=O)c1ccc(Cl)cc1)NC1CCCCC1,inactive: 3.75%
3,COCCCNC(=O)CSc1nc2cc3c(cc2c(=O)n1CCCCCC(=O)NCc1ccc(OC)cc1)OCO3,inactive: -2.23%
4,CC(C)COC(=O)Cn1nnc2sc(-c3ccccc3)cc2c1=O,inactive: 0.362%
5,Cc1cc(C)c(NS(=O)(=O)c2cc(-c3onc(C)c3C)ccc2C)c(C)c1,inactive: 9.52%
6,O=C(CN1CCCN(S(=O)(=O)c2ccc(Br)cc2)CC1)Nc1cccc(C(F)(F)F)c1,inactive: -1.24%
7,CC1CCN(C(=O)c2ccc3c(c2)N(Cc2ccccc2)C(=O)c2ccccc2S3(=O)=O)CC1,inactive: -14.4%
8,Cc1ccc(NC(=O)c2cnc(SCC(=O)N3CCOCC3)n(C)c2=O)cc1C,inactive: 3.84%
9,COc1ccccc1-c1noc(-c2ccc(NCc3ccco3)c([N+](=O)[O-])c2)n1,inactive: -7.41%
10,O=C(Nc1cccc(C(F)(F)F)c1)c1cc(S(=O)(=O)N2CCCC2)c[nH]1,inactive: -9.2%
11,COc1ccc(NC(=O)Cn2nnc(C(=O)NCc3ccc4c(c3)OCO4)c2N)cc1,inactive: -2.15%
12,Cc1cccc(N2CCN(C(=O)c3ccc4c(Cl)c5c(nc4c3)CCCC5)CC2C)c1 (configuration not stated),inactive: -3.63%
13,CCN(Cc1ccccc1)Cc1c(O)ccc2c(=O)c(-c3ccc(Cl)cc3)coc12,inactive: 2.75%
14,O=C(NCc1ccccc1Cl)c1cnc(N2CCOCC2)c2ccccc12,inactive: 1.98%
15,Cc1ccc(-c2cc(-c3coc4ccc(Cl)cc4c3=O)c3c(n2)-c2ccccc2OC3)cc1,inactive: 3.23%
16,Cc1ccc2cccc(NC(=O)c3cccc4c(Cl)cccc34)c2n1,inactive: 6%
17,Cc1ccc(C)c(N2CCN(C(=O)CCNS(=O)(=O)c3ccc4c(c3)CCN4C(=O)C3CC3)CC2)c1,inactive: -1.21%
18,O=C(C1CCC(Cn2c(=O)c3sccc3n(Cc3ccccc3)c2=O)CC1)N1CCCCC1 (configuration not stated),inactive: -1.91%
19,COc1ccc(OC)c(NC(=O)CC2C(=O)NCCN2C(=O)C(F)(F)F)c1 (configuration not stated),inactive: -9.31%
20,CCOc1ccc(NC(=O)CCc2nc3cccnc3n2-c2ccccc2)cc1,inactive: -15%
21,COc1ccc2c(c1)c(CC(=O)Nc1ccc(C(C)=O)cc1)c(C)n2C(=O)c1ccc(Cl)cc1,inactive: -8.91%
22,COc1ccc(NC(=O)c2oc3ccccc3c2NC(=O)C23CC4CC(CC(C4)C2)C3)c(OC)c1,inactive: -5%
23,Cc1ccc(NC(=O)c2oc3ccccc3c2NC(=O)c2ccc(F)c(F)c2)cc1,inactive: 8.65%

row,SMILES,"activity change, negative = inhibition"
1,COc1ccc(S(=O)(=O)NCCS(=O)(=O)N2CCN(c3ccccc3)CC2)cc1OC,inactive: -17%
2,CCc1ccc(NC(=O)CSc2nc3c(oc4ccccc43)c(=O)n2-c2cccc(C)c2)cc1,inactive: 10.8%
3,O=C(Nc1nc2ccc(Cl)cc2s1)c1cc(=O)c2ccccc2o1,inactive: -4.58%
4,CCc1cccc(CC)c1NC(=O)C(Cc1ccccc1)NS(=O)(=O)c1cccc2nsnc12 (configuration not stated),inactive: -12.3%
5,CC(C)CN(CCCNC(=O)c1cc(=O)[nH]c2ccc(S(=O)(=O)N3CCCC3)cc12)CC(C)C,inactive: -11.6%
6,CCc1cnc2c(c1SCc1ccccc1C)c(=O)n(C)c(=O)n2C,inactive: -0.115%
7,COc1cccc(C(=O)NC(=NCCc2c[nH]c3ccc(OC)cc23)Nc2nc(C)cc(C)n2)c1,inactive: -3.77%
8,COc1cc2c(cc1OC)n(CC(=O)c1cccc(Cl)c1)c(=O)n1nc(CCn3nc(C)cc3C)nc21,inactive: -2.7%
9,Cc1ccc(Nc2sc(C(=O)c3ccccc3)c(N)c2C(=O)Nc2ccc(Cl)cc2)cc1,inactive: -7.55%
10,CCOCCCNC(=O)c1cc(Sc2cccc(Cl)c2)nc2ccccc12,inactive: 9.98%
11,COc1ccc(-c2cn3nc(N4CCCC(C(=O)Nc5cccc(OC)c5)C4)sc3n2)cc1 (configuration not stated),inactive: 3.84%
12,O=C(CCN1C(=O)c2ccccc2Sc2ncccc21)Nc1ccc(F)cc1F,inactive: 0.371%
13,COc1cccc(C(=O)N2c3ccc(C)cc3C(C)(c3ccccc3)CC2(C)C)c1 (configuration not stated),inactive: -11%
14,COc1ccc(C2NC(=O)NC(C)=C2C(=O)Nc2ccccc2)cc1OC (configuration not stated),inactive: 8.08%
15,Cc1ccccc1C(=O)Nc1sc2c(c1C(=O)N1CCCCC1)CCC(C)C2 (configuration not stated),inactive: -2.47%
16,Cc1ccc(CC(=O)Nc2ccc3c(c2)N(C)C(=O)c2ccccc2S3)cc1,inactive: -8.46%
17,O=C(NCc1cccnc1)C(=O)NCC(c1cccnc1)N1CCN(c2ccc(F)cc2)CC1 (configuration not stated),inactive: 0.984%
18,CCOC(=O)c1ccc(NC(=O)C(Cc2ccccc2)N2Cc3ccccc3C2=O)cc1 (configuration not stated),inactive: -1.8%
19,Cc1ccc(-c2nn3c(=O)cc(CN4CCN(C(=O)/C=C/c5ccccc5)CC4)nc3s2)cc1,inactive: 1.31%
20,CCn1c(=O)c2sccc2n2c(CCCC(=O)N3CCN(c4cccc(Cl)c4)CC3)nnc12,inactive: 0.154%
21,CCCOc1ccc(C(=O)Nc2ccc3oc(-c4cccc(Cl)c4Cl)nc3c2)cc1,inactive: 12.2%
22,CCc1ccc(-c2cn3c(n2)sc2cc(C(=O)NCCC4=CCCCC4)ccc23)cc1,inactive: 6.05%
23,CCOC(=O)c1ccc(NC(=O)CSc2cn(CC(=O)N3CCCC3)c3ccccc23)cc1,inactive: -14.4%

row,SMILES,"activity change, negative = inhibition"
1,Cc1ccc(-n2nc3c(N4CCCC(C(=O)NCc5ccc(Cl)cc5)C4)nnc(C)c3c2C)cc1 (configuration not stated),inactive: -8%
2,COC(=O)c1ccc2c(c1)N(CC(=O)Nc1ccc(OC)c(Cl)c1)C(=O)c1ccccc1S2,inactive: 4.63%
3,CC(C)c1ccc(NC(=O)Cn2cc(S(=O)(=O)Cc3cccc(Cl)c3)c3ccccc32)cc1,inactive: -12.3%
4,COc1ccc(C(=O)Nc2nc3n(n2)C(c2ccccc2)C=C(c2ccccc2)N3)cc1 (configuration not stated),inactive: -3.94%
5,N#Cc1nc(COc2cccc(Cl)c2)oc1NCCc1ccccc1,inactive: 2.79%
6,CC(C)c1ccc(NC(=O)CSc2nc(=O)n(Cc3ccccn3)c3c2CCC3)cc1,inactive: 0.0426%
7,CCCn1c(SCc2nc(-c3ccccc3OCC)no2)nnc1-c1ccc(Cl)cc1,inactive: 0.856%
8,CCOc1ccccc1C(=O)N(Cc1cc(OC)c(OC)c(OC)c1)c1ccccn1,inactive: -8.9%
9,COC(=O)CNC(=O)C1CCN(S(=O)(=O)c2cccc3nsnc23)CC1,inactive: 1.75%
10,Cc1ccc(C(=O)c2c(N)c(C(=O)Nc3ccccc3Cl)c3ccccn23)cc1,inactive: -2.39%
11,CCOc1ccc(OCC(=O)NCCS(=O)(=O)N2CCN(c3ccccc3F)CC2)cc1,inactive: -13.3%
12,O=C(CN1C(=O)COc2ccc(Cl)cc21)Nc1cccc(F)c1,inactive: -7.02%
13,COc1ccc(S(=O)(=O)Nc2ccc(-c3ccc(N4CCCC4)nn3)cc2)cc1F,inactive: 0%
14,Cc1sc2ncn(CC(=O)Nc3cccc(C(F)(F)F)c3)c(=O)c2c1S(=O)(=O)N1CCN(C)CC1,inactive: -4.44%
15,CC1=C(C(=O)Nc2ccc(C)cc2C)C(c2ccc([N+](=O)[O-])cc2)n2ncc(C(=O)Nc3ccc(F)cc3)c2N1 (configuration not stated),inactive: -6.66%
16,Cc1ccc(-n2c(=O)c3c(cnn3C)n(CC(=O)Nc3ccc(C)cc3C)c2=O)cc1,inactive: 7.83%
17,CN(c1ccc(F)cc1)S(=O)(=O)N1CCCC(C(=O)NCc2cccc(Br)c2)C1 (configuration not stated),inactive: -20.7%
18,Cc1ccccc1Cc1c(C)nc2nc(SCC(=O)N(C)c3ccccc3)nn2c1C,inactive: 8.68%
19,Cc1c(C(=O)N2CCC(C)CC2)c(S(=O)(=O)NCc2ccc(Cl)cc2)c(C)n1C,inactive: 0%
20,CCN(CC)c1ccc2cc(-c3nc(-c4cccs4)no3)c(=O)oc2c1,inactive: 4.13%
21,CC(=O)c1ccc(N2CCN(C(=O)CCC(=O)Nc3ccc4nc(N5CCCCC5)cc(C)c4c3)CC2)cc1,inactive: -8.12%
22,CC1CCN(S(=O)(=O)c2ccc3c(c2)c(=O)c(C(=O)NCCc2ccccc2)cn3C)CC1,inactive: -3.92%
23,COc1ccc(S(=O)(=O)NCCc2csc3nc(-c4cccc(C)c4)nn23)cc1F,inactive: -9.05%
